# Measurements taken from paper PMC4336329 (PLoS ONE, 2015).
# Among all 310,000 compounds or so, about 14,000 (4.5%) showed an effect of 50% or more. The effect is printed as a negative number. This is one part of the list.
# Target: human ether-à-go-go-related gene (hERG) potassium channel (human, UniProt Q12809)
# Test: primary screen, population patch clamp on CHO cells stably expressing hERG
# 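Note: peak tail current of the secondary pulse compared with the same well before compound.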
# Chain of human ether-à-go-go-related gene (hERG) potassium channel (Q12809 whole entry, looked up): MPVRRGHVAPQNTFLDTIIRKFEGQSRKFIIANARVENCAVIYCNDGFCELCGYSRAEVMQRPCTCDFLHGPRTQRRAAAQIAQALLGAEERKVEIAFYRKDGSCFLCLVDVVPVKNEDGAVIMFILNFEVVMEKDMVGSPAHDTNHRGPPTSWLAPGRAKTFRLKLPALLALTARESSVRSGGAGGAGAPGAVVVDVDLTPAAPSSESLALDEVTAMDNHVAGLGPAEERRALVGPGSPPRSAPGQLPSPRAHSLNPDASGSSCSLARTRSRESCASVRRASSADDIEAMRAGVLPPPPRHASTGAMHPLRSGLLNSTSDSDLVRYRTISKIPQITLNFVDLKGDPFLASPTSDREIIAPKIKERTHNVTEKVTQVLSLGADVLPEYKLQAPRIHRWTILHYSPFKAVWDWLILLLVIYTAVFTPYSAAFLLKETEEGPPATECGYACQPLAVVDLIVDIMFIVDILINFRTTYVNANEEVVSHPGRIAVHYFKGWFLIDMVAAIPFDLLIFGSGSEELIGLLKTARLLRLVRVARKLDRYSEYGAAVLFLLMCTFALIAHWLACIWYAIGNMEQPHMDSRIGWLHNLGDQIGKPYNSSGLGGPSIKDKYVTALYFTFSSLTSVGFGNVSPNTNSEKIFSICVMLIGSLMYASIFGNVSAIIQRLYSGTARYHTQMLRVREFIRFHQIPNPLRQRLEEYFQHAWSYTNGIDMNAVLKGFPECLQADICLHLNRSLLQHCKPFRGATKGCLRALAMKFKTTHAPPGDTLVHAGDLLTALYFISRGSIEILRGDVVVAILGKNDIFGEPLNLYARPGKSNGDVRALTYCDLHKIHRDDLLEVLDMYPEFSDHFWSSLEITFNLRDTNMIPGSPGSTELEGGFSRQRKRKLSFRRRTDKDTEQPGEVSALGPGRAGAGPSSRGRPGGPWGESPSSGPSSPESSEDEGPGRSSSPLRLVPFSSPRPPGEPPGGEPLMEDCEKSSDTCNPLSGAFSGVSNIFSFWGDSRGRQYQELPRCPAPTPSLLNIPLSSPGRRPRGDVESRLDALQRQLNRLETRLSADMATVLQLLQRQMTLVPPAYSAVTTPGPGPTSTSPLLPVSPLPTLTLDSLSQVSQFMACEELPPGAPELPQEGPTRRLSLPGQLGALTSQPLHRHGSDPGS
row,Compound,"hERG current change (%, negative = inhibition) at 10uM [%]"
1,CC(C)C(c1nnnn1C1CCCC1)N1CCN(C(=O)c2ccco2)CC1 (stereo not shown),-26.8
2,O=c1c2cn[nH]c2nc(SCc2c(F)cccc2F)n1-c1ccc(Cl)cc1,19.5
3,O=c1[nH]cc(S(=O)(=O)c2ccccc2)[nH]1,12.2
4,O=C(Oc1cccc(N2C(=O)CCC2=O)c1)c1ccccc1,9.31
5,Cc1cccc(C(=O)n2cnnc2N)c1,21.8
6,C=CCN1CCN(C(c2cccc(OC)c2OC)c2nnnn2CCC(C)C)CC1.Cl (stereo not shown),-2.34
7,O=C(CCNC(=O)C1CCN(S(=O)(=O)c2ccccc2)CC1)NCc1ccncc1,25.9
8,CCCOc1ccc(N2C(=O)C3ON(c4ccccc4)C(CCC)C3C2=O)cc1 (stereo not shown),13.6
9,COc1ccc(Br)cc1CNc1ccc(N2CCOCC2)cc1,8.73
10,O=c1[nH]cnc2sc3c(c12)CCCC3,11.6
11,S=C(NCc1cccc(Cl)c1)NCc1ccco1,13
12,CN=c1scc(C)n1/N=C/c1cc(Br)c(O)c(OC)c1,15.8
13,CCc1cc2c(=O)c(-c3nc(C)cs3)c(CCCC(=O)O)oc2cc1O,29.7
14,CCNc1nc2cccnc2s1,4.42
15,CCOc1ccccc1NC(=O)COC(=O)C(CC(C)C)N1C(=O)C2CC=CCC2C1=O (stereo not shown),8.06
16,CC(=O)c1cccc(NC(=S)NCCC2=CCCCC2)c1,-18.7
17,CCCC(=O)Nc1nnc(COC)s1,4.96
18,Cc1ccc(-c2nc(CSCC(=O)N3CCCC3)c(C)o2)cc1,-13.6
19,Cc1ccc(S(=O)(=O)Nc2ccc3c(c2)OCCO3)cc1,10.1
20,COc1ccccc1NC(=O)CCC(=O)OCC(=O)c1ccc(C)c([N+](=O)[O-])c1,11.8
21,CCOC(=O)c1c(C)[nH]c(C)c1C(=O)C(Cc1ccccc1)N(C)C.Cl (stereo not shown),4.71
22,NS(=O)(=O)c1cccc(NC(=O)c2cccc(-c3ccc(O)cc3)c2)c1,25.6
23,CCc1ccc(S(=O)(=O)N/N=C\c2ccc3c(c2)OCO3)cc1,9.85

row,Compound,"hERG current change (%, negative = inhibition) at 10uM [%]"
1,CS(=O)(=O)Nc1nnc(SCC(=O)Nc2cccc([N+](=O)[O-])c2)s1,4.31
2,CC(NC(=O)c1cccc(C(F)(F)F)c1)C1CCCO1 (stereo not shown),-3.64
3,Cc1ccccc1OCCC(=O)OCC(=O)NC1CC1,-12.3
4,COC(=O)[C@H](CCSC)NC(=O)c1cc2c(cn1)[nH]c1ccccc12,0.117
5,COc1ccc(-c2nc(CCNC(=O)c3ccco3)cs2)cc1OC,-4.6
6,O=C(NCc1cccnc1)c1cccc(Cl)c1,3.95
7,Cc1ccc(S(=O)(=O)NNC(=O)Nc2cccc3ccccc23)cc1,16.2
8,N#CCCN(C(=O)CO/N=C/c1cccc([N+](=O)[O-])c1)c1ccccc1,-18.9
9,Cl.O=C(CCN1CCOCC1)c1ccc(Br)cc1,25.2
10,Cc1nn(C)c(=S)n1-c1ccc(Cl)cc1,15.4
11,CCOc1ccc(S(=O)(=O)NCCC(=O)N(C)Cc2cccs2)cc1,-20.9
12,COc1cccc(Nc2ccc(Nc3cccc(OC)c3)nn2)c1,-0.276
13,CCC(CC)NC(=O)CCc1nc2ccccc2c(=O)[nH]1,13.7
14,COc1ccc(OCCn2cnc(Cl)c2Cl)cc1,8.05
15,CC1(C)CC(=O)C2=C(C1)OC(c1cccs1)C(C#N)=C2N (stereo not shown),-25.7
16,CCCc1cc(=O)oc2cc(C)cc(OCC(=O)N3CCC(C(=O)O)CC3)c12,8.99
17,CC(=O)Nc1ccc(C(=O)Nc2ccc(S(=O)(=O)NCC3CCCO3)cc2)cc1 (stereo not shown),10.7
18,N#CCOC(=O)C1CSC2(c3ccc(Br)cc3)CCC(=O)N12 (stereo not shown),8.43
19,O=C(NCCC1CCCCN1S(=O)(=O)c1ccc(F)cc1)C(=O)NCc1cccnc1 (stereo not shown),-18.8
20,CC(=O)c1ccc(N2CCN(C(=O)Nc3ccc(C(C)C)cc3)CC2)cc1,-63.7
21,CCOC(=O)C(=O)N(Nc1ccccc1C)c1ccccc1C,-14.3
22,Cc1ccccc1N(CC(=O)N1CCc2ccccc2C1)S(C)(=O)=O,6.34
23,O=C(CCN1C(=O)/C(=C/c2ccc(F)cc2)SC1=S)NCCc1cnc[nH]1,-33.2

row,Compound,"hERG current change (%, negative = inhibition) at 10uM [%]"
1,CCOc1ccc(CCNC(=O)COC(=O)c2cccc(N(C)C)c2)cc1OCC,-0.637
2,O=C(CSc1cn(Cc2ccccc2)c2ccccc12)NCc1ccc(F)cc1,10.4
3,O=c1c(-c2ccc(Br)cc2)coc2c(CN3CCOCC3)c(O)ccc12,-20.7
4,COc1cc2cc(CN(Cc3cccs3)C(=S)Nc3ccc(C)cc3)c(=O)[nH]c2cc1OC,7.58
5,COc1ccccc1C(NC(C)=O)c1c(O)ccc2ccc(O)cc12 (stereo not shown),-3.24
6,CC(C)(C)[C@H]1CCC(=O)N([C@H](CN=[N+]=[N-])Cc2ccccc2)CC1,-7.5
7,Cc1nn2c(-c3ccc(S(=O)(=O)N4CCN(C)CC4)o3)nnc2c2ccccc12,13.6
8,Cc1cccc(C)c1NC(=O)CNC(=O)Cc1ccccc1[N+](=O)[O-],17.9
9,Cc1ccc2nc(NC(=O)c3ccc(N4C(=O)CCC4=O)cc3)sc2c1,15.8
10,Cc1cc(C)cc(C(=O)/C=C2\NC(=O)CS2)c1,5.64
11,CCCN1CCN(C(=S)Nc2ccc([N+](=O)[O-])cc2)CC1,-52.1
12,Cc1ccc(C)c(NS(=O)(=O)c2cc3c4c(c2)CC(=O)N4CCC3)c1,4.86
13,CCCCCC(=O)Nc1ccc(N2CCN(CC)CC2)c(Cl)c1,-71.5
14,Cc1ccc(S(=O)(=O)N2CCOCC2)cc1C(=O)N1CC(C)OC(C)C1 (stereo not shown),15.1
15,COc1ccc(N2C(=O)CC(Cc3ccccc3)C2=O)cc1 (stereo not shown),12.7
16,O=C(C1CCCCC1)N1CCN=C1SCc1cccnc1,-0.582
17,CCN1CCCC1CNC(=O)CSCc1nc(-c2ccccc2C)oc1C (stereo not shown),-23.4
18,O=C(CNS(=O)(=O)c1ccccc1)NCC(=O)OCc1ccccc1F,13.7
19,CC1(OC(=O)CCc2ccccc2)C(=O)C=C2C=C3CCCN3C=C2C1=O (stereo not shown),-1.36
20,C=CCn1c(COc2ccccc2)nnc1SCC(=O)Nc1ccc2c(c1)OCCO2,1.65
21,Cc1cc(C2C(=O)c3ccccc3C2=O)c(C)c(C)c1C,-14.1
22,CCC(=O)C1=C(O)C(c2cccc(Oc3ccccc3)c2)CCC1=O (stereo not shown),-4.31
23,COc1ccccc1NS(=O)(=O)c1ccc2oc(=O)ccc2c1,9.62

row,Compound,"hERG current change (%, negative = inhibition) at 10uM [%]"
1,C=CCNC(=O)c1c(-c2c(F)cccc2Cl)noc1C,-1.62
2,CCOc1ccc(C(C)NC(=O)Cc2ccccc2F)cc1OCC (stereo not shown),12.3
3,CC(C)(C)NC(=O)C(c1ccncc1)N(C(=O)Cn1nnc(-c2ccc(F)cc2)n1)c1ccc(F)cc1 (stereo not shown),-20
4,c1ccc(-c2nc(-c3ccncc3)n[nH]2)nc1,-1.5
5,COc1ccc(-c2nn(Cc3ccccc3)cc2C(=O)N2CCN(c3ncccn3)CC2)cc1OC,-38.4
6,CCN(CC)S(=O)(=O)c1ccc(C)c(C(=O)Oc2cccc(-c3cnc4ccccc4n3)c2)c1,15.7
7,Cc1cc(=O)oc(C)c1C(=O)NCC1COc2ccccc2O1 (stereo not shown),-4.16
8,O=C(c1ccc(Cl)cc1)N1CCC(N2CCC(C(=O)N3CCOCC3)CC2)CC1,-22.8
9,Cc1nc(-c2nc(-c3c(C(=O)NNC(=O)Nc4cccc(Cl)c4)noc3C)cs2)cs1,-3.74
10,O=C(Nc1ccccc1)N1CCc2ccccc2C1,10.8
11,O=C(c1ccccc1)c1c(O)nc(-c2ccccc2)n(-c2ccccc2)c1=O,10.4
12,CCCCc1nc2sc3c(SCC(=O)NCc4ccco4)ncnc3c2c2c1CCC2,23.4
13,CCN(Cc1cnn(C)c1)C(=O)c1cc(COc2cc(C)c(Cl)c(C)c2)on1,-43.1
14,COc1cccc(CNC(=O)Cn2c(=O)n(CCC(=O)N3CCCCC3)c(=O)c3sccc32)c1,-3.26
15,Nc1cc(N2CCCC2)ccc1[N+](=O)[O-],7.33
16,FC(F)(F)c1ccc(-c2nc(=S)[nH][nH]2)cc1,27.6
17,CCOc1cc(NC(=S)NCC2CCCO2)c(OCC)cc1NC(=O)CC (stereo not shown),-14.1
18,NC(CC(=O)O)C1CCCCC1 (stereo not shown),17.5
19,N#CC1(NC(=O)CN2CCc3ccccc3C2)CCCC1,17.9
20,COc1ccc(S(=O)(=O)N(Cc2cccs2)C2CCCC2)cc1,5.76
21,Cc1ccc(OCCC(=O)OCC(=O)N2CCN(S(=O)(=O)c3ccc(C)cc3C)CC2)cc1,11.2
22,CC1(C)CC(NC(=S)NCc2ccc3c(c2)OCO3)CC(C)(C)N1,20.7
